EPA's CvTdb concentration-time database
The source gives many values for each of these; only a part stands here.

Legend:
Assay in all cases: concentration in plasma after dosing
[1] = test system: Rat; conditions: dosed: Isoeugenol, 140 mg/kg, oral, Male, F344/N
[2] = test system: Rat; conditions: dosed: Isoeugenol, 70 mg/kg, oral, Female, F344/N
[3] = test system: Rat; conditions: dosed: Isoeugenol, 140 mg/kg, oral, Male, F344/N; remark: listed apart in the source
[4] = test system: Rat; conditions: dosed: Isoeugenol, 140 mg/kg, oral, Female, F344/N
[5] = test system: Rat; conditions: dosed: Isoeugenol, 140 mg/kg, oral, Female, F344/N; remark: listed apart in the source
[6] = test system: Rat; conditions: dosed: Isoeugenol, 70 mg/kg, oral, Female, F344/N; remark: listed apart in the source
[7] = test system: Rat; conditions: dosed: Isoeugenol, 17 mg/kg, iv, Male, F344/N
[8] = test system: Rat; conditions: dosed: Isoeugenol, 70 mg/kg, oral, Male, F344/N
[9] = test system: Rat; conditions: dosed: Isoeugenol, 17 mg/kg, iv, Male, F344/N; remark: listed apart in the source
[10] = test system: Rat; conditions: dosed: Isoeugenol, 17 mg/kg, iv, Female, F344/N
[11] = test system: Rat; conditions: 6 h; dosed: Perfluorohexane-1-sulphonic acid – potassium salt; 16 mg/kg; oral; Female; F344
[12] = test system: Rat; conditions: 192 h; dosed: Perfluorohexane-1-sulphonic acid – potassium salt; 16 mg/kg; oral; Female; Harlan Sprague Dawley
[13] = test system: Rat; conditions: 48 h; dosed: Perfluorohexane-1-sulphonic acid – potassium salt; 16 mg/kg; oral; Female; Harlan Sprague Dawley
[14] = test system: Rat; conditions: 3 h; dosed: Perfluorohexane-1-sulphonic acid – potassium salt; 16 mg/kg; oral; Female; Harlan Sprague Dawley
[15] = test system: Rat; conditions: dosed: Perfluorohexane-1-sulphonic acid – potassium salt, 32 mg/kg, oral, Female, Harlan Sprague Dawley
[16] = test system: Rat; conditions: dosed: Perfluorohexane-1-sulphonic acid – potassium salt, 4 mg/kg, Female, F344
[17] = test system: Rat; conditions: dosed: Perfluorohexane-1-sulphonic acid – potassium salt, 4 mg/kg, Female, F344; remark: listed apart in the source
[18] = test system: Rat; conditions: dosed: Perfluorohexane-1-sulphonic acid – potassium salt, 4 mg/kg, Female, F344; remark: listed apart in the source
[19] = test system: Rat; conditions: dosed: Perfluorohexane-1-sulphonic acid – potassium salt, 16 mg/kg, oral, Female, Harlan Sprague Dawley
[20] = test system: Rat; conditions: dosed: Perfluorohexane-1-sulphonic acid – potassium salt, 4 mg/kg, Female, F344; remark: listed apart in the source
[21] = test system: Rat; conditions: 3 h; dosed: Perfluorohexane-1-sulphonic acid – potassium salt; 16 mg/kg; oral; Female; F344
[22] = test system: Rat; conditions: dosed: Perfluorohexane-1-sulphonic acid – potassium salt, 32 mg/kg, oral, Female, Harlan Sprague Dawley; remark: listed apart in the source
[23] = test system: Rat; conditions: 9 h; dosed: Fluorotelomer alcohol 8+2; 24 mg/kg; oral; Male; Harlan Sprague Dawley
[24] = test system: Rat; conditions: 0.5 h; dosed: Fluorotelomer alcohol 8+2; 160 mg/kg; oral; Female; Harlan Sprague Dawley
[25] = test system: Rat; conditions: dosed: Fluorotelomer alcohol 8+2, 160 mg/kg, oral, Female, Harlan Sprague Dawley
[26] = test system: Rat; conditions: 6 h; dosed: Fluorotelomer alcohol 8+2; 24 mg/kg; oral; Male; Harlan Sprague Dawley
[27] = test system: Rat; conditions: 0.5 h; dosed: Fluorotelomer alcohol 8+2; 80 mg/kg; oral; Female; Harlan Sprague Dawley
[28] = test system: Rat; conditions: dosed: Fluorotelomer alcohol 8+2, 48 mg/kg, oral, Male, Harlan Sprague Dawley
[29] = test system: Rat; conditions: 6 h; dosed: Fluorotelomer alcohol 8+2; 24 mg/kg; oral; Male; Harlan Sprague Dawley; remark: listed apart in the source
[30] = test system: Rat; conditions: dosed: Fluorotelomer alcohol 8+2, 160 mg/kg, oral, Female, Harlan Sprague Dawley; remark: listed apart in the source
[31] = test system: Rat; conditions: 3 h; dosed: Fluorotelomer alcohol 8+2; 160 mg/kg; oral; Female; Harlan Sprague Dawley
[32] = test system: Rat; conditions: dosed: Fluorotelomer alcohol 8+2, 40 mg/kg, oral, Female, Harlan Sprague Dawley
[33] = test system: Rat; conditions: dosed: Fluorotelomer alcohol 8+2, 160 mg/kg, oral, Female, Harlan Sprague Dawley; remark: listed apart in the source
[34] = test system: Rat; conditions: 12 h; dosed: Fluorotelomer alcohol 8+2; 80 mg/kg; oral; Female; Harlan Sprague Dawley
[35] = test system: Rat; conditions: 3 h; dosed: Fluorotelomer alcohol 8+2; 160 mg/kg; oral; Female; Harlan Sprague Dawley; remark: listed apart in the source

C/C=C/c1ccc(O)c(OC)c1 [Isoeugenol]
concentration in plasma ([1]; 2 min): 3410 ng/mL
concentration in plasma ([1]; 2 h): 309 ng/mL
concentration in plasma ([2]; 20 min): 970 ng/mL
concentration in plasma ([2]; 1.5 h): 251 ng/mL
concentration in plasma ([3]; 1 h): 495 ng/mL
concentration in plasma ([3]; 4 h): 784 ng/mL
concentration in plasma ([4]; 20 min): 1980 ng/mL
concentration in plasma ([4]; 6 h): 785 ng/mL
concentration in plasma ([5]; 1 h): 993 ng/mL
concentration in plasma ([5]; 4 h): 512 ng/mL
concentration in plasma ([6]; 0.75 h): 283 ng/mL
concentration in plasma ([6]; 2 h): 179 ng/mL
concentration in plasma ([7]; 20 min): 1940 ng/mL
concentration in plasma ([7]; 2 h): 58.7 ng/mL
concentration in plasma ([8]; 1 h): 104 ng/mL
concentration in plasma ([8]; 4 h): 60.5 ng/mL
concentration in plasma ([9]; 1 h): 216 ng/mL
concentration in plasma ([9]; 2.5 h): 64.9 ng/mL
concentration in plasma ([10]; 20 min): 1800 ng/mL
concentration in plasma ([10]; 1.5 h): 166 ng/mL

O=S(=O)([O-])C(F)(F)C(F)(F)C(F)(F)C(F)(F)C(F)(F)C(F)(F)F.[K+] [Perfluorohexane-1-sulphonic acid – potassium salt]
concentration in plasma [11]: 118000 ng/mL
concentration in plasma [12]: 6010 ng/mL
concentration in plasma [13]: 37300 ng/mL
concentration in plasma [14]: 108000 ng/mL
concentration in plasma ([15]; 6 h): 145000 ng/mL
concentration in plasma ([15]; 96 h): 25100 ng/mL
concentration in plasma ([16]; 6 h): 30500 ng/mL
concentration in plasma ([16]; 192 h): 506 ng/mL
concentration in plasma ([17]; 5 min): 62000 ng/mL
concentration in plasma ([17]; 3 h): 33900 ng/mL
concentration in plasma ([17]; 192 h): 17300 ng/mL
concentration in plasma ([18]; 5 min): 62600 ng/mL
concentration in plasma ([18]; 6 h): 27200 ng/mL
concentration in plasma ([18]; 192 h): 888 ng/mL
concentration in plasma ([19]; 0.25 h): 39000 ng/mL
concentration in plasma ([19]; 288 h): 1930 ng/mL
concentration in plasma ([20]; 0.5 h): 45600 ng/mL
concentration in plasma ([20]; 24 h): 17100 ng/mL
concentration in plasma [21]: 94600 ng/mL
concentration in plasma ([22]; 0.25 h): 68700 ng/mL
concentration in plasma ([22]; 12 h): 109000 ng/mL
concentration in plasma ([22]; 192 h): 6840 ng/mL

O=C(O)CCC(F)(F)C(F)(F)C(F)(F)C(F)(F)C(F)(F)C(F)(F)C(F)(F)F [Fluorotelomer acid 7+3]
concentration in plasma [23]: 175 ng/mL
concentration in plasma [24]: 373 ng/mL
concentration in plasma ([25]; 1 h): 2640 ng/mL
concentration in plasma ([25]; 24 h): 1540 ng/mL
concentration in plasma [26]: 560 ng/mL
concentration in plasma [27]: 565 ng/mL
concentration in plasma ([28]; 1 h): 751 ng/mL
concentration in plasma ([28]; 24 h): 643 ng/mL
concentration in plasma [29]: 903 ng/mL
concentration in plasma ([30]; 0.5 h): 730 ng/mL
concentration in plasma ([30]; 9 h): 3340 ng/mL
concentration in plasma [31]: 7990 ng/mL
concentration in plasma ([32]; 1 h): 1090 ng/mL
concentration in plasma ([32]; 24 h): 270 ng/mL
concentration in plasma ([33]; 1 h): 4710 ng/mL
concentration in plasma ([33]; 24 h): 5640 ng/mL
concentration in plasma [34]: 1600 ng/mL
concentration in plasma [35]: 7090 ng/mL
